# Assay results reported in PMC4336329 (PLoS ONE, 2015).
# Out of some 310,000 compounds screened, about 2,200 (0.71%) showed an effect of 50% or more. Effects have a minus sign here. The list shows a part of the results.
# Biological target: human ether-à-go-go-related gene (hERG) potassium channel (human, UniProt Q12809)
# Test: primary screen, population patch clamp on CHO cells stably expressing hERG
# Sequence of human ether-à-go-go-related gene (hERG) potassium channel (Q12809 whole entry, looked up): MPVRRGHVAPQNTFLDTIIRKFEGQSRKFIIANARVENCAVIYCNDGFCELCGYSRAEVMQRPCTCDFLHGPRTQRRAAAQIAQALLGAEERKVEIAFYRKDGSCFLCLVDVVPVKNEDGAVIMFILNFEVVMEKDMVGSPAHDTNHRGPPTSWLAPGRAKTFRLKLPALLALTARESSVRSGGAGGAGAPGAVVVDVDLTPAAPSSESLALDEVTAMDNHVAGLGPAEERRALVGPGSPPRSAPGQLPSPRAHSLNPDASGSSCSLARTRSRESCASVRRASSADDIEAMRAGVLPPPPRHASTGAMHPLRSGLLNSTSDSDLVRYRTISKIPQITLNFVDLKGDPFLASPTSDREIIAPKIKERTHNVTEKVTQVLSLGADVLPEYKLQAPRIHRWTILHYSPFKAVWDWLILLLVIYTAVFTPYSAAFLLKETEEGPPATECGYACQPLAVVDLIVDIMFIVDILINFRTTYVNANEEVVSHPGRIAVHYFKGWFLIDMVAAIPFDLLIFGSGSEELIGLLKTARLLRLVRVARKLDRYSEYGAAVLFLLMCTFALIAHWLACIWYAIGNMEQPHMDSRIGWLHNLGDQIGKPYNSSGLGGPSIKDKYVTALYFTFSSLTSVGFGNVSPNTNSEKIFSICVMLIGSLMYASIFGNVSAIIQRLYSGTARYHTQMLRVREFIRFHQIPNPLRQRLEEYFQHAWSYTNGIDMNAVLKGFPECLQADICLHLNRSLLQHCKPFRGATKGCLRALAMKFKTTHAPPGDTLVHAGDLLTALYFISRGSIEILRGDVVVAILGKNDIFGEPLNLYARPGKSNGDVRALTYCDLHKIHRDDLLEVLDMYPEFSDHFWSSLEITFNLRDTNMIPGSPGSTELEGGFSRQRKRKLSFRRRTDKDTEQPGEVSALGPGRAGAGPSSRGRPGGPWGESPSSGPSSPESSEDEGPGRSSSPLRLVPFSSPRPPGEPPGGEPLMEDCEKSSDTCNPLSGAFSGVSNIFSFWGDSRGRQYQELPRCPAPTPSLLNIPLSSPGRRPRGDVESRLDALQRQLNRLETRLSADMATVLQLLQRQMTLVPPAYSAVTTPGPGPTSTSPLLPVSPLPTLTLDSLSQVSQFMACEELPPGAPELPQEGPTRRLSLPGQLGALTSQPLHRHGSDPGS
row,Structure (SMILES),"hERG current change (%, negative = inhibition) at 1uM"
1,COC(C/C=C\[C@H](O)[C@H](C)OCc1ccccc1)OC,-3.51%
2,CCS(=O)(=O)Nc1cccc(-c2cn3c(n2)SCC3)c1,26.1%
3,Cc1ccccc1NS(=O)(=O)c1ccc(N2CCCC2=O)cc1,8.45%
4,COCCCNc1nc2c(c(=O)n(Cc3ccc(OC)cc3)c(=O)n2C)n1C,14.3%
5,Cc1c(C)c(C)c(C(=O)c2ccc(NC(=O)c3ccccc3C(=O)O)cc2)c(C)c1C,8.53%
6,O=C(COC(=O)c1ccc(F)c(S(=O)(=O)N2CCOCC2)c1)c1ccc(Cl)cc1,0.724%
7,COc1cc2nc(C(C)(C)C)oc(=O)c2cc1OC,6.72%
8,O=C(c1ccc(OC2CCN(CCCc3ccccc3)CC2)cc1)N1CCCC1,-55.2%
9,O=C(CCSc1ccccc1)NCCN1CCOCC1,-0.237%
10,CC(C)NC(=O)CN(CCc1ccccc1)S(C)(=O)=O,9.06%
11,O=C(O)CSc1cc(C(F)(F)F)nc(-c2ccccn2)n1,0.604%
12,Clc1ccccc1-c1ncc(-c2ccccc2)o1,11.1%
13,COc1ccccc1N1CCN(Cc2c(F)cccc2Cl)CC1,15.5%
14,CC1CCc2c(C(=O)NCc3cccnc3)csc2C1 (stereo not drawn),-1.14%
15,CCOC(=O)C(Cc1ccccc1)NC(=O)CCc1nnc2ccc(N3CCOCC3)nn12 (stereo not drawn),14.1%
16,N#Cc1cccc(NS(=O)(=O)c2ccc(S(=O)(=O)N3CCOCC3)cc2)c1,6.83%
17,CCCCCC/C=N/Nc1nnc(Cc2ccccc2)c(=O)[nH]1,6.27%
18,Cc1cc(OCC(=O)N(C)C2CCCCC2)ccc1Cl,14.8%
19,CCOc1ccc(CCNC(=O)C2CCC(=O)N2CCc2ccccc2)cc1OCC (stereo not drawn),5.12%
20,COc1cc(OC)c(OC)cc1/C=N/n1c(C)nnc1C,4.32%
21,Cn1ccnc1SCC(=O)c1cccc(Br)c1,12%
22,COc1ccc(C(=O)N=C2SC3CS(=O)(=O)CC3N2Cc2ccc(F)cc2)cc1 (stereo not drawn),10.7%
23,CC1=NN(C(N)=S)C(=O)C1N=Nc1cccc(Cl)c1C (stereo not drawn),15.2%

row,Structure (SMILES),"hERG current change (%, negative = inhibition) at 1uM"
1,CC(C)CNc1nnnc2c1sc1nc(N3CCOCC3)c3c(c12)CCCC3,12.8%
2,COc1cc(NC(=O)c2ccccc2Cl)c(OC)cc1NC(=O)CN1CCOCC1,7.62%
3,CCN(CC)/C(=N\S(=O)(=O)c1ccccc1C)c1ccccc1,-5.09%
4,CC(C)(C)SCCNS(=O)(=O)c1ccc(Cl)cc1,14.3%
5,CCOc1cc(/C=N/NC(=O)c2cc(-c3ccccc3)nc3ccccc23)ccc1O,9.2%
6,Cc1ccnn1CC(=O)N/N=C/c1cn[nH]c1-c1ccccc1,13.5%
7,CC(=O)NC1C(Oc2ccc(C)cc2)OC2COC(c3ccco3)OC2C1O (stereo not drawn),11%
8,CCN(Cc1ccccc1)C(=O)CSc1nc(C)cc2c1C(=O)OC2,-3.89%
9,COc1ccc(NC(=O)c2nc[nH]c2C(=O)N[C@@H](CC(C)C)C(=O)OC(C)(C)C)cc1,16.4%
10,COc1ccc(C2=NNC(c3ccco3)=Nc3ccc(F)cc32)cc1,1.37%
11,CCCCCC[n+]1c(-c2ccc(Cl)cc2Cl)csc1Nc1ccccc1.[Cl-],8.29%
12,CCC(Sc1nc(=O)cc(N)n1CCc1ccccc1)C(=O)Nc1cc(C)on1 (stereo not drawn),0.583%
13,CCc1c(C)nc(SCCOc2ccc(OC(C)C)cc2)[nH]c1=O,19.4%
14,CC1(C)CC(=O)C2=C(C1)NC1=C(C(=O)c3ccccc31)C2c1cccnc1 (stereo not drawn),12.1%
15,COc1ccc(-n2c(O)c(/C=N/NS(=O)(=O)c3cc(C)ccc3C)c3ccccc3c2=O)cc1OC,15.5%
16,CCOC(=O)C1CCCN(C(=O)c2cc3c(C)nc4ccccc4c3o2)C1 (stereo not drawn),-17.7%
17,O=C(CN1CCOCC1)Nc1ccc2c(c1)OCO2,20.1%
18,CCOC(=O)C1=C(c2ccccc2)NC(=O)NC1c1ccc(N(C)C)cc1 (stereo not drawn),7.74%
19,Cc1cc(N2C(=O)CC(Cc3ccccc3)C2=O)no1 (stereo not drawn),6.33%
20,CCCc1cc(C(=O)NCCc2ccccc2)no1,-4.85%
21,Cc1ccc(NC(=O)N2CCCCCC2)cc1,0.321%
22,CCOC(=O)C1CCCN(Cc2cc(Br)c(OC)cc2OC)C1 (stereo not drawn),9.63%
23,COCCNc1ccc(S(=O)(=O)N2CCCC2)cn1,7.88%

row,Structure (SMILES),"hERG current change (%, negative = inhibition) at 1uM"
1,Cc1nn(Cc2c(Cl)cccc2Cl)c(C)c1N,5.33%
2,Cc1ccc(CN(Cc2cc3cccc(C)c3[nH]c2=O)C(=O)N(C)C)cc1,7.2%
3,Cc1ccc(CCN2C(=O)c3ccccc3C2C(=O)NCc2cccnc2)cc1 (stereo not drawn),6.86%
4,COc1ccccc1Nc1nc(N)nc(CN2CCC(C)CC2)n1,-37.3%
5,Nc1c(-c2ccc(Cl)cc2)cnc2c(-c3ccccc3)cnn12,18.5%
6,O=C(Cn1cc([N+](=O)[O-])cn1)NCc1ccco1,-26.4%
7,O=C(NCc1ccccc1F)C1CCCN(S(=O)(=O)c2ccc(-n3cnnn3)cc2)C1 (stereo not drawn),-2.46%
8,O=C(CC1(c2ccc(Cl)cc2)C2CC3CC(C2)CC1C3)NCCO (stereo not drawn),7.57%
9,CCOc1ccc(C(=O)COC(=O)CN2C(=O)NC3(CCCCC3C)C2=O)cc1 (stereo not drawn),-5.7%
10,CCOc1ccccc1-n1c(SCC(=O)NC(C)(C)C)nnc1-c1ccoc1C,14.3%
11,CC(CCC(=O)O)C1CCC2C3CCC4C[C@H](O)CCC4(C)C3CC(=O)C12C (stereo partly drawn),14.9%
12,Cc1cccc(C)c1NC(=O)CN(C)C(=O)c1cccc(NS(=O)(=O)c2ccccc2)c1,-4.64%
13,CCCc1cc(=O)oc2cc(OCC(=O)NCCc3c[nH]c4ccccc34)ccc12,-17.7%
14,CCCCn1c(CN2CCN(CCO)CC2)nc2ccccc21,-26.6%
15,CCOC(=O)N1CCN(S(=O)(=O)c2ccc(F)cc2)CC1,13.6%
16,COc1cc(C(=O)Nc2ccc3c(c2)Cc2cc(NC(=O)c4cc(OC)c(OC)c(OC)c4)ccc2-3)cc(OC)c1OC,14.8%
17,CCOc1ccc2nc(-c3ccccc3)nc(SCC(=O)OC)c2c1,16.9%
18,Cc1cc(C)cc(OCC(O)CN2CCN(Cc3ccc4c(c3)OCO4)CC2)c1.Cl (stereo not drawn),-67.9%
19,O=C(Nc1cc(S(=O)(=O)Nc2ccc(Cl)cc2)ccc1N1CCCCC1)c1ccc(F)cc1Cl,9.08%
20,O=C(Nc1ccc2c(c1)CCC2)c1cccc(S(=O)(=O)N2CCN(c3ccccc3)CC2)c1,-2.54%
21,CCNc1nnc(-c2ccc(C)cc2)o1,9.37%
22,CCN(CC)c1nc2c(s1)C(=O)NCCC2,-0.411%
23,CCN(CC)CCn1c(=N)n(CC(O)c2ccc(OC)c(OC)c2)c2ccccc21.Cl (stereo not drawn),8.84%

row,Structure (SMILES),"hERG current change (%, negative = inhibition) at 1uM"
1,CCc1ccc(N2CC(C(=O)Nc3nc4ccc(S(C)(=O)=O)cc4s3)CC2=O)cc1 (stereo not drawn),2.86%
2,C=CCn1c(Sc2ccccc2)nc2c1c(=O)[nH]c(=O)n2C,3.05%
3,Cc1ccc(/C=C2\SC(=O)N(CCC(=O)N3CCN(C)CC3)C2=O)cc1,8.41%
4,COc1ccc(C(=O)CSc2nnc(COc3ccccc3)n2Cc2ccco2)cc1,-16.8%
5,COc1ccc(-c2nc(CSCC(=O)NCCCN3CCCC3=O)c(C)o2)cc1,9.82%
6,COCCNC(=O)c1nn2cccnc2c1Cl,-0.365%
7,CC(C)[C@H](NC(=O)c1ccc(F)cc1)C(=O)NC1=NCCS1,15.6%
8,COc1cccc(CN2CC(C(=O)N(C)Cc3[nH]c4ccccc4c3C)CCC2=O)c1 (stereo not drawn),7.06%
9,COc1ccc(CCNC(=O)COC(=O)c2ccc([N+](=O)[O-])o2)cc1,8.38%
10,Brc1ccc(Oc2ccc(Br)cc2Br)c(Br)c1,12%
11,CCOC(=O)C1CCN(c2nc(C)nc3c2oc2ccccc23)CC1.Cl,5.64%
12,CCCNC(=O)COc1coc(CN2CCN(c3cccc(Cl)c3)CC2)cc1=O,4.74%
13,O=C(NCCc1ccccn1)/C(=C/c1ccco1)NC(=O)c1ccccc1,5.6%
14,COc1ccc(S(=O)(=O)N2CC3C4C=CC(C4)C3C2)cc1 (stereo not drawn),11.4%
15,COc1ccc(Br)cc1S(=O)(=O)NCc1ccccn1,4.7%
16,CC(CSc1nnnn1-c1ccccc1)Cn1c(N2CCCC2)nc2c1c(=O)[nH]c(=O)n2C (stereo not drawn),-15.8%
17,CSc1ncc2c(=O)[nH]c(-c3ccccc3)nc2n1,14.2%
18,CCOC(=O)CN(C(=O)COc1nc(-c2ccccc2)cc(C)c1C#N)c1ccc(C)cc1,8.45%
19,O=C(Oc1ccc(Br)cc1C(=S)N1CCOCC1)c1ccccc1,-0.346%
20,CC(C)(C)Cc1cc(N)on1,-2.6%
21,CCC(=O)Nc1cc(C(=O)N2CCC3(CC2)OCCO3)ccc1S(=O)(=O)c1ccc(C)cc1,8.68%
